According to the BET-seq Pho4 binding data (Le et al. 2018):
The other results are listed elsewhere or left out. The energies were worked out here from pooled read counts, against the library average; single values are noisy.

Each sequence was assayed against T1, Pho4 (S. cerevisiae) (UniProt P07270) (assay: relative binding free energy (BET-seq); higher = weaker binding). Settings: reference: library average.
T1 sequence: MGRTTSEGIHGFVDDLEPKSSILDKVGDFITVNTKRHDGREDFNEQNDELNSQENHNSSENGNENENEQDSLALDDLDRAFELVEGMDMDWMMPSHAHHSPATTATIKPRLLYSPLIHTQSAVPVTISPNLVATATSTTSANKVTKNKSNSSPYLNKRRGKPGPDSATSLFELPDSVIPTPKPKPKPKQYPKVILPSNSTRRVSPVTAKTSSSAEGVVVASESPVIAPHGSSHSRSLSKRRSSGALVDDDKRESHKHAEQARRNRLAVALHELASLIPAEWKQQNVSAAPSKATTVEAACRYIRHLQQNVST

| Sequence | relative binding free energy |
| --- | --- |
| AGGCCCACGTGTGTGT | -0.502 kJ/mol |
| GCGCACACGTGGGTGT | -0.92 kJ/mol |
| ATGTGCACGTGCGGAT | -0.335 kJ/mol |
| CTGTGCACGTGGTGTG | -0.544 kJ/mol |
| GGCGTCACGTGGGCGG | -0.209 kJ/mol |
| TTGGGCACGTGGACTG | -0.586 kJ/mol |
| GGTATCACGTGTAGTT | 1 kJ/mol |
| TTTTGCACGTGGGATT | -0.0837 kJ/mol |
| CTGTTCACGTGGTATG | 0.586 kJ/mol |
| GGGCGCACGTGGGTAG | -1.17 kJ/mol |
| CTTTTCACGTGTGTAA | 1.8 kJ/mol |
| CGTAACACGTGGAGGT | -0.293 kJ/mol |
| CTGTGCACGTGAGAGG | 1 kJ/mol |
| ATTCTCACGTGGGTAG | 0 kJ/mol |
| GATGGCACGTGGCTGT | -0.418 kJ/mol |
| TGGCTCACGTGGTATT | 0.502 kJ/mol |
| GTACTCACGTGAGTTT | 0.879 kJ/mol |
| CGATTCACGTGTGAGG | 0.92 kJ/mol |
| CTGGTCACGTGCGTGT | -0.251 kJ/mol |
| ATGTGCACGTGGCGCG | -0.753 kJ/mol |
| TGTTGCACGTGGAAAA | 0.126 kJ/mol |
| GTCTTCACGTGTCTTT | 2.05 kJ/mol |
| ATGATCACGTGGGGAG | -0.377 kJ/mol |
| TGTGTCACGTGATTGG | 0.879 kJ/mol |
| TTAGTCACGTGGAGCA | 0.377 kJ/mol |

| Sequence | relative binding free energy |
| --- | --- |
| TAATTCACGTGCTGGG | 1 kJ/mol |
| AGGGTCACGTGCATTA | 0.418 kJ/mol |
| GGTTTCACGTGGTCCG | 1.17 kJ/mol |
| AATAGCACGTGTGTAA | -0.502 kJ/mol |
| GTTGGCACGTGGGATG | -0.502 kJ/mol |
| GTTGCCACGTGGTTAG | -0.377 kJ/mol |
| CGGTTCACGTGTTATC | 1.72 kJ/mol |
| CAGGGCACGTGGTTGG | -0.711 kJ/mol |
| TGGTGCACGTGATGCT | 0.126 kJ/mol |
| GTTATCACGTGATGGG | 0.962 kJ/mol |
| TATTGCACGTGAAGTA | 1.05 kJ/mol |
| GGGGTCACGTGCCTTG | 0.502 kJ/mol |
| TCTGGCACGTGAAAGG | 0.669 kJ/mol |
| ATGTTCACGTGTCAGA | 1.09 kJ/mol |
| GGGGGCACGTGTGTTC | -0.0418 kJ/mol |
| AAGTTCACGTGGGCAG | 0.418 kJ/mol |
| GTAAGCACGTGGATGT | 0.126 kJ/mol |
| TAGGGCACGTGTGCCG | -0.586 kJ/mol |
| ATTTGCACGTGAACGG | 0.92 kJ/mol |
| TGGTTCACGTGGGCCG | 1 kJ/mol |
| TTATTCACGTGTCCTT | 1.46 kJ/mol |
| TGTCTCACGTGTGGCT | 1 kJ/mol |
| CGTGTCACGTGTGGTG | 0.753 kJ/mol |
| AGATTCACGTGAAAGG | 1 kJ/mol |
| GTAGGCACGTGGGTAG | -0.795 kJ/mol |

| Sequence | relative binding free energy |
| --- | --- |
| GTATACACGTGGTTGG | -0.0837 kJ/mol |
| GAGGGCACGTGGAAGG | 0.0418 kJ/mol |
| TATGTCACGTGTGGAA | 0.628 kJ/mol |
| TGTTGCACGTGGTACA | -0.544 kJ/mol |
| GAGTTCACGTGGGATG | 1.09 kJ/mol |
| TAGGGCACGTGGCGTG | -1.13 kJ/mol |
| AGGGACACGTGCGTTG | -0.209 kJ/mol |
| GTCGACACGTGTGTGC | 0.962 kJ/mol |
| TAAGTCACGTGAGGAG | 1.46 kJ/mol |
| GTGTGCACGTGTCTGA | 0.126 kJ/mol |
| GTATTCACGTGTGTAG | 0.962 kJ/mol |
| CAAAGCACGTGTGGGT | 0.209 kJ/mol |
| ATCGTCACGTGAGATG | 1.46 kJ/mol |
| AGTATCACGTGTCGGG | 0.586 kJ/mol |
| AGGGACACGTGTGCTG | 0.126 kJ/mol |
| TGAAACACGTGGGGTA | -0.418 kJ/mol |
| GTGATCACGTGTTATA | 0.293 kJ/mol |
| GTCGACACGTGGTTGA | 0.0837 kJ/mol |
| GGTCGCACGTGATGGG | 0.167 kJ/mol |
| AAAGGCACGTGAGGTG | -0.126 kJ/mol |
| TGTAACACGTGGTGAT | -0.335 kJ/mol |
| TATATCACGTGATATT | 0.753 kJ/mol |
| TGCGGCACGTGCTTTA | -0.0837 kJ/mol |
| TTGTGCACGTGTACTT | -0.418 kJ/mol |
| GTGGTCACGTGTGCTT | 0.92 kJ/mol |

| Sequence | relative binding free energy |
| --- | --- |
| GTTTGCACGTGCATCG | 0.753 kJ/mol |
| TTCGGCACGTGGGAAA | -0.377 kJ/mol |
| CTTTTCACGTGTTGGT | 0.795 kJ/mol |
| AGATGCACGTGTGCGG | -0.209 kJ/mol |
| TTTTCCACGTGGTATT | 0.502 kJ/mol |
| GTAGACACGTGTGTTC | 0.293 kJ/mol |
| TGCAGCACGTGAGGGA | 0.628 kJ/mol |
| GTATACACGTGGGTTT | -0.0837 kJ/mol |
| ATGATCACGTGGTACG | 0.251 kJ/mol |
| TATTTCACGTGTGGTC | 1.55 kJ/mol |
| GTCGCCACGTGAGGGG | 0.795 kJ/mol |
| GCGGTCACGTGAGTGA | 1.26 kJ/mol |
| ATACGCACGTGAAGTG | 0.711 kJ/mol |
| GGTGACACGTGATGGA | 0.795 kJ/mol |
| GGGATCACGTGGTTTG | 0.628 kJ/mol |
| AAGGGCACGTGTTGGC | -0.251 kJ/mol |
| ATTTACACGTGCTGTG | 0.335 kJ/mol |
| ATGTTCACGTGTCAGT | 0.293 kJ/mol |
| TTCGACACGTGGTGTA | -0.377 kJ/mol |
| ATTAACACGTGGGTCT | -0.879 kJ/mol |
| AGCGTCACGTGTTTGT | -0.126 kJ/mol |
| CTCTGCACGTGAGGGG | 0.628 kJ/mol |
| GCTTCCACGTGGGTGT | -0.0837 kJ/mol |
| GGAACCACGTGTGGTT | 0.377 kJ/mol |
| ATTGTCACGTGTTTGG | 0.335 kJ/mol |

| Sequence | relative binding free energy |
| --- | --- |
| GTTATCACGTGGTGTT | 0.502 kJ/mol |
| TGGTGCACGTGGCAGG | -0.209 kJ/mol |
| GTCGACACGTGTGGTG | 0.209 kJ/mol |
| GGCGGCACGTGTATTT | 0.251 kJ/mol |
| CCGGTCACGTGGAGGT | 0.0837 kJ/mol |
| GTATACACGTGTACGT | 0 kJ/mol |
| TAATTCACGTGGTGTA | 0.586 kJ/mol |
| GGCCGCACGTGGGGGC | -0.586 kJ/mol |
| AGAATCACGTGTAGGC | 1.72 kJ/mol |
| TGAGACACGTGCGTTG | -0.544 kJ/mol |
| GTTTGCACGTGTACGC | 0.293 kJ/mol |
| AGTGGCACGTGTAGCT | -0.418 kJ/mol |
| GTCGACACGTGTTGTA | 0.502 kJ/mol |
| AGATGCACGTGTCGGT | 0.0837 kJ/mol |
| AGGGTCACGTGTGCGC | 0.502 kJ/mol |
| CGTTTCACGTGTCAGT | 0.837 kJ/mol |
| CGGTGCACGTGGTTCG | -0.335 kJ/mol |
| TTTTCCACGTGGCATG | 0.293 kJ/mol |
| TTTCTCACGTGGTAAT | 0.293 kJ/mol |
| GTCTTCACGTGTGCGG | 1.17 kJ/mol |
| ATTCTCACGTGTTTAA | 1.05 kJ/mol |
| TGATGCACGTGTTGGG | 0.167 kJ/mol |
| AGTATCACGTGATGGA | 0.753 kJ/mol |
| GTTGTCACGTGTTGTC | 0.669 kJ/mol |
| TATTTCACGTGGTGCA | 0.92 kJ/mol |

| Sequence | relative binding free energy |
| --- | --- |
| TAGTGCACGTGAAGAA | 1.26 kJ/mol |
| AAATTCACGTGTACGG | 0.92 kJ/mol |
| CTGTACACGTGAGTGT | 0.544 kJ/mol |
| TAGATCACGTGTGTAG | 0.46 kJ/mol |
| AAGGGCACGTGGGTAA | -0.962 kJ/mol |
| CTGGTCACGTGGATGT | 0.418 kJ/mol |
| AGATTCACGTGGCTGT | 0.251 kJ/mol |
| TGTCACACGTGTGTGC | 0.669 kJ/mol |
| AAGGGCACGTGTGGTG | -0.46 kJ/mol |
| AGTTTCACGTGAGGTC | 1.42 kJ/mol |
| TCGGGCACGTGAGAGC | 0.753 kJ/mol |
| TGATTCACGTGTAATT | 1.42 kJ/mol |
| AGCTTCACGTGGAGGG | 1.46 kJ/mol |
| GCGTGCACGTGGTAAT | -0.0418 kJ/mol |
| TATGTCACGTGATAGT | 0.92 kJ/mol |
| CATTACACGTGGAGGT | 0.837 kJ/mol |
| TTTTGCACGTGTAATC | 0.586 kJ/mol |
| GTGGACACGTGTAGAA | 0.92 kJ/mol |
| AGGGTCACGTGTACGT | 0.251 kJ/mol |
| AGGAGCACGTGAGTGT | 0.418 kJ/mol |
| AGTGTCACGTGAAGCT | 0.502 kJ/mol |
